Among all 48,000 compounds or so, about 120 (0.25%) were called active. Another 4% or so got no clear call; they are omitted. The call rests on the fitted dose curve; in most records, active means well fitted activation curve with a large enough effect; inconclusive means small, poorly fitted or top-dose-only effect, or another doubt; inactive means no such curve, though single readings can be large or run the other way. This is one part of the list.
assay: Primary qHTS for Identification of Small Molecule Activators of Huntingtin-Antisense Promoter Activity; conditions: HEK293 HTT-AS promoter firefly luciferase reporter, 24 h; series mostly up to 57.5 µM; activity change, positive = activation: at the top concentration; further: nearly all actives have a fitted effect of over 55% in size
How it was run: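 Firefly luciferase signal from promoter-reporter HEK293 cells was scaled between vehicle (0%) and zero RLU (-100%). Compounds were tested at final concentrations of up to 57.5 uM over 24 h at 37 degrees C. PTC124 at 50 uM final served as control inhibitor.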

Activity change, positive = activation, inactive:
Cc1oc2ncn(CC(C)C)c(=O)c2c1C(=O)NCCCN1CCCCC1C (stereo not drawn) -3.51%
COc1cccc(Cn2c(=O)n(CC3CCC(C(=O)N4CCOCC4)CC3)c(=O)c3sccc32)c1 (stereo not drawn) -16.9%
Cc1cc(C)c2c(n1)SCC(=O)N2CC(=O)Nc1cccc(C)c1C -16.6%
CCN1CCN(C(=O)c2ccc3c(c2)N(Cc2ccc(Cl)cc2)C(=O)c2ccccc2S3=O)CC1 (stereo not drawn) -15.5%
CCOc1ccc(NC(=O)c2oc3ccccc3c2NC(=O)Cc2cccs2)cc1 10.3%
CCc1ccc(Cn2c(CNS(=O)(=O)c3ccc4c(c3)CCCC4)nc3cccnc32)cc1 -23.2%
CCc1ccc2c(c1)c(=O)c(C(=O)c1ccccc1)cn2CC(=O)Nc1ccc(C)c(Cl)c1 -14.5%
CCc1ccc2c(c1)c(=O)c(C(=O)c1ccc(C)cc1)cn2CC(=O)Nc1ccccc1C -11.7%
Cc1cccc(C)c1OCC(=O)Nc1c(C(=O)c2ccccc2)oc2ccccc12 -13.7%
COc1ccc(-c2nnc(SCC(=O)NCCc3ccccc3)nc2-c2ccc(OC)cc2)cc1 -1.86%
CCc1ccccc1NC(=O)c1ncoc1-c1ccco1 -4.74%
COc1ccc(-c2c(C)nn3c(-c4ccccc4)cc(-c4ccccc4)nc23)cc1 6.21%
Cc1ccc(NC(=O)CSc2nc3nccnc3c(=O)n2CCc2c[nH]c3ccccc23)c(C)c1 -18.7%
O=C(Cc1ccc(NC(=O)N2CCCCc3ccccc32)cc1)Nc1ccccc1Br -35.2%
Cc1cccc(NC(=O)CN(C)S(=O)(=O)c2cnc[nH]2)c1C -9.55%
Cc1ccccc1CN1c2ccccc2-c2nc(SCC(=O)Nc3cc(F)ccc3F)ncc2S1(=O)=O -0.501%
Cc1ccc(-n2ncc(C(=O)NCCCN3CCN(C)CC3)c2C2CCN(C(=O)OC(C)(C)C)CC2)cc1 -3.33%
Cc1cc(C)c(NC(=O)CN2C(=O)CCn3nc(-c4cccn4C)cc32)c(C)c1 -9.03%
CCCCNc1cc(N2CCN(C3CCCCC3)CC2)c2noc3c2c1C(=O)c1ccccc1-3 -7.06%
CCCCC(=O)N1CCN(c2nc3c(C)c(C)ccc3s2)CC1 -11.6%
Cc1cc(C)c(NC(=O)CSc2cn(CC(=O)N3CCOCC3)c3ccccc23)c(C)c1 -16.9%
O=C(Nc1nnc(S(=O)(=O)N2CCOCC2)s1)c1cccc(Br)c1 -11.2%
Cc1nc2c(C(=O)NCCc3ccccc3)c[nH]n2c(=O)c1Cc1ccccc1F -20.9%
COc1cc(NS(=O)(=O)c2cc3c(cc2C)n(C)c(=O)c(=O)n3C)cc(OC)c1 -20.2%
COc1cc(NC(=O)NCCn2nnc3cc(S(=O)(=O)N(C)C)ccc32)cc(OC)c1OC 5.26%
COc1cc(NC(=O)c2cc3cc4ccc(OC)c(Cl)c4nc3s2)cc(OC)c1 -3.4%
CCC(Sc1ccc2nnc(CCNS(=O)(=O)c3ccc(OC)cc3)n2n1)C(=O)OC (stereo not drawn) -7.43%
Cc1ccccc1C(=O)NC1(C(F)(F)F)C(=O)Nc2c1c(=O)[nH]c(=O)n2CCc1ccccc1 (stereo not drawn) 8.23%
COc1ccc(-c2nc3c4ccccc4n(CC(=O)Nc4ccc(C(C)=O)cc4)c(=O)n3n2)cc1 0.837%
Cc1nc2ccc(S(=O)(=O)NCC(=O)Nc3ccc(C)c(Cl)c3)cc2s1 -5.67%
Cc1cc(C)cc(NC(=O)CSc2nc3c(cnn3-c3ccc(F)cc3)c(=O)[nH]2)c1 -8.69%
Cc1cc(SCC(=O)Nc2ccc(C(F)(F)F)cc2)nc(=O)[nH]1 -39.8%
CC(C)C[C@@H](N)C(=O)O -4.7% [at 25.1 µM, percent change from vehicle, -100% = no light]
Cc1ccc(C)c(N2CCN(C(=O)c3cccn4c(=O)c5ccccc5nc34)CC2)c1 -16.1%
CCCCOC(=O)c1ccc(NC(=O)c2cc(=O)c3ccccc3o2)cc1 0%
O=C(O)CCCn1cc(NC(=O)COc2ccccc2F)cn1 4.65%
CCc1ccc(C(=O)c2cn(CC(=O)Nc3ccc(OC)cc3)c3cc4c(cc3c2=O)OCCO4)cc1 -8.14%
O=C(Nc1ccc(OC(F)(F)F)cc1)C(NS(=O)(=O)c1cccc2nsnc12)c1ccccc1 (stereo not drawn) -16.7%
Cc1ccc(OCCSc2nc3ccccc3n2CC(=O)NC(C)C)cc1 -17.6%
O=C(CSc1ncc2c(n1)-c1cc(Cl)ccc1N(Cc1ccccc1)S2(=O)=O)NCc1ccccc1 -10.7%
O=C1CSC2(C(=O)N(Cc3c(F)cccc3Cl)c3ccccc32)N1c1ccc(F)c(F)c1 (stereo not drawn) -19.6%
Cc1ccc(-c2nnn3c2nc(N2CCC(C)CC2)c2ccccc23)cc1 12.1%
CCOc1ccc(S(=O)(=O)NCCc2csc3nc(-c4cccc(C)c4)nn23)cc1 -38.9%
Cc1ccc(C(=O)Nc2nnc(S(=O)(=O)N3CCCc4ccccc43)s2)cc1 15.3%
COc1ccc(CCNC(=O)c2ccc(CSCc3ccc(C)cc3)o2)cc1OC -31.8%
COc1ccc(C(=O)Nc2ccc3nc(N4CCCCC4)cc(C)c3c2)cc1OC -19.9%
COCCCNC(=O)C1CCN(C(=O)c2cc3sccc3n2Cc2ccc(Cl)cc2)CC1 -35.8%
Cc1cccc(CSc2ccc3nnc(CCNS(=O)(=O)c4ccccc4)n3n2)c1 -24.4%
